# Measurements reported in the supplement of paper PMC8512760.
# The list shows a part of the results. Many values rest on one well or one pass, so single values are uncertain.
# What was measured:
# Assay in all cases: cell viability relative to vehicle (% of vehicle); basal-like triple-negative breast cancer lines; higher = less cytotoxic
# Conditions in all cases: 10 µM; 72 h
# HCC-1143 = test system: HCC-1143
# HCC-1187 = test system: HCC-1187
# MDA-468 = test system: MDA-468
# SUM-149 = test system: SUM-149
# 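Also: stably firefly luciferase-GFP labeled cells in 96-well plates, viability read as luciferase photon flux after d-luciferin addition, treated wells normalized to vehicle wells, single-dose high-throughput screen.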
smiles,measurement,setting,value
CC(=O)O.CC(=O)O.CCC(C)CC(C)CCCCCCCCC(=O)NC1CC(O)C(NCCN)NC(=O)C2C(O)CCN2C(=O)C(C(O)CCN)NC(=O)C(C(O)C(O)c2ccc(O)cc2)NC(=O)C2CC(O)CN2C(=O)C(C(C)O)NC1=O (configuration not stated) [Caspofungin Acetate],cell viability,HCC-1143,83.2
same,cell viability,HCC-1187,107
same,cell viability,MDA-468,95.8
same,cell viability,SUM-149,104
Nc1c(CC(=O)[O-])cccc1C(=O)c1ccccc1.O.[Na+] [Amfenac Sodium Monohydrate],cell viability,HCC-1143,77.6
same,cell viability,HCC-1187,79.2
same,cell viability,MDA-468,91.5
same,cell viability,SUM-149,102
CO/N=C(\C(=O)N[C@@H]1C(=O)N2C(C(=O)O)=C(CSc3nc(=O)c(O)nn3C)CS[C@H]12)c1csc(N)n1 [Ceftriaxone Sodium Trihydrate],cell viability,HCC-1143,75.1
same,cell viability,HCC-1187,100
same,cell viability,MDA-468,107
same,cell viability,SUM-149,90.1
Cc1ccccc1C(=O)Nc1ccc(C(=O)N2CCCC(O)c3cc(Cl)ccc32)c(C)c1 (configuration not stated) [Tolvaptan],cell viability,HCC-1143,77.1
same,cell viability,HCC-1187,94.8
same,cell viability,MDA-468,92.1
same,cell viability,SUM-149,107
N=C(N)c1ccc(OCCCCCOc2ccc(C(=N)N)cc2)cc1.O=S(=O)(O)CCO.O=S(=O)(O)CCO [Pentamidine isethionate],cell viability,HCC-1143,74.1
same,cell viability,HCC-1187,75
same,cell viability,MDA-468,69.8
same,cell viability,SUM-149,125
CO[C@H]1/C=C/O[C@@]2(C)Oc3c(C)c(O)c4c(O)c(c(/C=N/N5CCN(C6CCCC6)CC5)c(O)c4c3C2=O)NC(=O)/C(C)=C\C=C\[C@H](C)[C@H](O)[C@@H](C)[C@@H](O)[C@@H](C)[C@H](OC(C)=O)[C@@H]1C [Rifapentine],cell viability,HCC-1143,82.5
same,cell viability,HCC-1187,71.4
same,cell viability,MDA-468,92.9
same,cell viability,SUM-149,112
CCNC(=O)CCCC=CCC1C(O)CC(O)C1C=CC(O)CCc1ccccc1 (configuration not stated) [Bimatoprost],cell viability,HCC-1143,82.8
same,cell viability,HCC-1187,79.3
same,cell viability,MDA-468,93.5
same,cell viability,SUM-149,108
O=C(NCC(O)CO)c1ccncc1Nc1ccc(I)cc1F (configuration not stated),cell viability,HCC-1143,90.7
same,cell viability,HCC-1187,106
same,cell viability,MDA-468,52
same,cell viability,SUM-149,133
CCCCN1CCCCC1C(=O)Nc1c(C)cccc1C.Cl (configuration not stated) [Bupivacaine HCl],cell viability,HCC-1143,117
same,cell viability,HCC-1187,113
same,cell viability,MDA-468,117
same,cell viability,SUM-149,121
CCCC1CC(C(=O)NC(C(C)Cl)C2OC(SC)C(O)C(O)C2O)N(C)C1 (configuration not stated) [Clindamycin],cell viability,HCC-1143,64.6
same,cell viability,HCC-1187,97.1
same,cell viability,MDA-468,109
same,cell viability,SUM-149,89.7
NS(=O)(=O)c1cc(C(=O)O)c(NCc2ccco2)cc1Cl [Furosemide],cell viability,HCC-1143,82.6
same,cell viability,HCC-1187,82.3
same,cell viability,MDA-468,98.4
same,cell viability,SUM-149,92.6
O=C(O)c1ccccc1O [Salicylic acid],cell viability,HCC-1143,82.2
same,cell viability,HCC-1187,90.8
same,cell viability,MDA-468,121
same,cell viability,SUM-149,117
CCCCC(=O)N(Cc1ccc(-c2ccccc2-c2nnn[nH]2)cc1)[C@H](C(=O)O)C(C)C.CCOC(=O)[C@H](C)C[C@@H](Cc1ccc(-c2ccccc2)cc1)NC(=O)CCC(=O)O,cell viability,HCC-1143,78.9
same,cell viability,HCC-1187,93.4
same,cell viability,MDA-468,106
same,cell viability,SUM-149,99.7
